The other results are listed elsewhere or left out. The energies were worked out here from pooled read counts, against the library average; single values are noisy.
Target: T1, Pho4 (S. cerevisiae) (UniProt P07270)
T1 sequence: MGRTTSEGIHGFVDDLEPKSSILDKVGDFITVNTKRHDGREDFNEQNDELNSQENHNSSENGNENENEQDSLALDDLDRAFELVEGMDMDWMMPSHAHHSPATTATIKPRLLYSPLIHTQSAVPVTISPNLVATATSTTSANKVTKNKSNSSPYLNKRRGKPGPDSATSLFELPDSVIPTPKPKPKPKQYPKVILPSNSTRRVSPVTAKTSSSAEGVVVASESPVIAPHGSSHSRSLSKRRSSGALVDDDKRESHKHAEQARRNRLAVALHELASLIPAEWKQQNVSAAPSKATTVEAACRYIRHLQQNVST
Assay: relative binding free energy (BET-seq); higher = weaker binding
Settings: reference: library average

| Sequence | relative binding free energy |
| --- | --- |
| GAGAGCACGTGAGGTG | 0.2 kcal/mol |
| GGATTCACGTGACGTG | 0.35 kcal/mol |
| GCGGCCACGTGGTTGG | -0.06 kcal/mol |
| AGCGGCACGTGTGGCA | 0.08 kcal/mol |
| GTGGCCACGTGATGTG | 0.11 kcal/mol |
| TCTGTCACGTGTCAGT | 0.1 kcal/mol |
| AGAATCACGTGTAGGA | 0.21 kcal/mol |
| TCTTGCACGTGTTAAG | 0.05 kcal/mol |
| TGCGTCACGTGCAAGT | 0.08 kcal/mol |
| TGTGTCACGTGCTGTA | 0.02 kcal/mol |
| CTGAGCACGTGATGTG | -0.12 kcal/mol |
| ATACTCACGTGTGAGG | 0.2 kcal/mol |
| AATGTCACGTGTATAT | 0.13 kcal/mol |
| ATGAGCACGTGGTACT | -0.14 kcal/mol |
| TCTTGCACGTGTTATT | 0.08 kcal/mol |
| TGGGTCACGTGTTCCG | 0.17 kcal/mol |
| AATATCACGTGAAGGG | 0.28 kcal/mol |
| TCTGACACGTGGGGAT | -0.01 kcal/mol |
| CTTGACACGTGTTAAT | 0.09 kcal/mol |
| GGGTGCACGTGCTCTT | 0.09 kcal/mol |
| ATATACACGTGGTGGA | -0.1 kcal/mol |

| Sequence | relative binding free energy |
| --- | --- |
| TCGGGCACGTGATTTA | 0.07 kcal/mol |
| TGGAGCACGTGATAGG | -0.07 kcal/mol |
| CTGTACACGTGCGTGG | -0.05 kcal/mol |
| ATGGGCACGTGTGTCG | -0.09 kcal/mol |
| GTGATCACGTGGAAAG | 0.27 kcal/mol |
| AGGTCCACGTGTAAGT | 0.06 kcal/mol |
| GAGACCACGTGGGGTA | 0.04 kcal/mol |
| CAGGGCACGTGTATAG | -0.08 kcal/mol |
| AGTCGCACGTGTACGT | 0 kcal/mol |
| GTTAGCACGTGGGCAT | -0.16 kcal/mol |
| AGTATCACGTGGGCAT | 0.1 kcal/mol |
| TGTGTCACGTGGCCGA | -0.05 kcal/mol |
| ATTTTCACGTGGACTG | 0.12 kcal/mol |
| CGGCGCACGTGGGGTC | -0.23 kcal/mol |
| CATGTCACGTGGGTAG | -0.1 kcal/mol |
| TGCAGCACGTGTGTGT | -0.02 kcal/mol |
| GGGCTCACGTGTTTAG | 0.24 kcal/mol |
| GTATTCACGTGTCAGT | 0.38 kcal/mol |
| GAGGGCACGTGGGTGA | -0.15 kcal/mol |
| GTATGCACGTGGGTCT | -0.18 kcal/mol |
| GCATGCACGTGGTGGG | -0.13 kcal/mol |

| Sequence | relative binding free energy |
| --- | --- |
| TTGTGCACGTGAGGGC | 0.1 kcal/mol |
| AATGGCACGTGGTCTG | -0.2 kcal/mol |
| GCGTCCACGTGTGTTG | 0.11 kcal/mol |
| TGTGTCACGTGGCAGT | -0.03 kcal/mol |
| AAGAACACGTGGGGGG | -0.14 kcal/mol |
| ATGATCACGTGGATAT | 0.15 kcal/mol |
| GAGGACACGTGTGGGA | 0.22 kcal/mol |
| TCCGACACGTGTGGGT | 0.17 kcal/mol |
| GGGGCCACGTGCGTGA | -0.14 kcal/mol |
| GTGTCCACGTGGGCTA | -0.02 kcal/mol |
| GGATTCACGTGAATAG | 0.41 kcal/mol |
| GTTGCCACGTGGAGTT | -0.05 kcal/mol |
| ATTGTCACGTGGTTTG | 0.05 kcal/mol |
| TTATGCACGTGGTTCT | -0.13 kcal/mol |
| ACGGTCACGTGGTGTA | -0.15 kcal/mol |
| ATACGCACGTGAGGTG | 0.19 kcal/mol |
| CAGGGCACGTGGCTTT | -0.08 kcal/mol |
| CGTTACACGTGTTTTA | 0.23 kcal/mol |
| AGTAACACGTGGTTGT | 0 kcal/mol |
| TTCTACACGTGAATGG | 0.39 kcal/mol |
| GTGGGCACGTGTAAAT | 0.05 kcal/mol |
